Experimental data published in PubChem BioAssay (NCATS).
Where “and” joins values, the source holds several entries; their conditions need not be identical. Equal values may be shown once. The inconclusive results got no clear call from the source; some entries with a clear call stand among them for comparison. Calls follow the shape of the dose curve; as a rule, active = well fitted inhibition curve with a large enough effect; inconclusive = small, poorly fitted or top-dose-only effect; inactive = flat fitted curve, though single readings scatter. Potencies beside an inconclusive call are fits to weak or partial responses and may not hold up.

Experiment: P-glycoprotein substrates identified in KB-8-5-11 adenocarcinoma cell line, qHTS therapeutic library screen (AID 1346987); also: nearly all actives have a fitted effect of over 65% in size
Conditions: KB-8-5-11 (P-gp overexpressing) viability, CellTiter-Glo, 72 h; series mostly up to 44.5 µM
Procedure, shortened: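 Steps: plate 500 KB-8-5-11 cells/well in DMEM + 10% FCS (colchicine removed); pin compounds in dose-response; incubate 72 h, 37 degree C, 5% CO2; add CellTiter-Glo, 5 min; read luminescence.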
Potency is read from the fitted curve at half-maximal effect; tags tell the direction and shape of the fitted curve.

SMILES	Potency
COc1cc2ncnc(Nc3cccc(Br)c3)c2cc1OC	inconclusive: 29.1 µM [inhibitor, single point]
Cc1nc(NC(=O)N2CCC[C@@H]2C(N)=O)sc1-c1csc(C(C)(C)C)n1	inconclusive: 7.43 µM [inhibitor, full curve]
CCN(CC)CCCCNc1ncc2cc(-c3cc(OC)cc(OC)c3)c(NC(=O)NC(C)(C)C)nc2n1	inconclusive: 9.35 µM [inhibitor, full curve] and inconclusive: 29.1 µM [inhibitor, single point]
CCC(C)(C)C(=O)O[C@H]1C[C@@H](C)C=C2C=C[C@H](C)[C@H](CC[C@@H]3C[C@@H](O)CC(=O)O3)[C@H]21	inconclusive: 12.4 µM [inhibitor, single point] and active: 16.6 µM
